These results are taken from the RNAGym collection of RNA variant scans (doi:10.1093/nar/gkz1192).

Read counts are not given, so values of variants with three or more changes are uncertain.

Sequences and labels used below:
B1: CPEB3 Ribozyme (parent)
chain: UAACAGGGGGCCACAGCAGAAGCGUUCACGUCGCAGCCCCUGUCAGAUUCUGGUGAAUCUGCGAAUUCUGCUGUAUAUCUC

Variants of B1 are the subject of this data set. As to the kind of experiment: self-cleavage, relative activity (ratio to wild type); higher = more cleavage; in vitro, sequencing. An outline of the steps:
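Barcoded CPEB3 ribozyme mutants, produced by rounds of error-prone PCR, self-cleaved while being transcribed with T7 RNA polymerase for 5 hours at 37°C and during a subsequent 15 min DNase I step before EDTA was added. Sequencing of template-switched cDNA on Illumina gave cleaved and total reads, and DNA sequencing assigned barcodes to variants. Each variant's relative activity is its cleaved/total read fraction divided by the unmutated ribozyme's fraction, averaged across three batches. A variant needed a minimum of 5 reads.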
A5U A45U A47G U60A: the self-cleavage turned out to be 1.11.
The result for A5U A57G U72A reads 0.59; that for A5U A57G U72C, 1.29; that for A5U C32U C40A U67C U80A, 0.08.
As to A5U G30U U51G, the self-cleavage came to 0.25.
Turning to A5U A35U U43C U60C U66C U69A U76C, the self-cleavage was found to be 0.14.
The result for A5U C34U A35G reads 0.46; that for A5U G55A A57G, 0.62; that for A5U C40U U43A U58C U69C U74C, 0.2.
The result for A5U C11G U43A A64U reads 0.16; that for A5U G9A A21G A35U U43A A56G U78C, 0.11.
As to A5U G6A C34U U43A A45G U80A, the self-cleavage was found to be 0.1.
For the variant A5U G19A C40A A56G, the self-cleavage was 0.21.
Then A5U G8U A21G A65G, with 0.17; and A5U A35G U78A, with 1.29.
The result for A5U A75U A77G reads 1.17.
Then A5U A47G C59U, with 0.7.
In the case of A5U G8U C50U U54C A56U A64C C81A, the self-cleavage was found to be 0.03.
For the variant A5U A56U A57U A64U, the self-cleavage is 0.12.
A5U A56G A77G: the self-cleavage was determined as 0.86.
With A5U G30A U58A, the self-cleavage was found to be 0.26.
The result for A5U G9A A15G U49C A64G reads 0.16; that for A5U G24A A28G U31A, 0.09.
On to A5U C29U A35C, for which the self-cleavage worked out at 0.28.
Consider A5U U25C U31C A45G U60A U67C, for which the self-cleavage is 0.13.
For A5U U25C G55U U69C U80C, the self-cleavage was determined as 0.22.
The result for A5U A45G U51C A75U reads 1.02; that for A5U G8U A21G U51G U60C U69A, 0.18; that for A5U U26C U54C U60C A65G U69A, 0.17.
With A5U U25C A35U U78C U80A, the self-cleavage is 0.09.
As to A5U C29A U49C U69A U72C, the self-cleavage amounted to 0.19.
Then A5U C27A G33A C71G U78C, with 0.09; and A5U G19A U31C U41C, with 0.28; and A5U C17U U41A U60A U76C C79U, with 0.09.
Take A5U U25C A28G U41C U74C: the self-cleavage turned out to be 0.11.
Then A5U G19U U31A G36C U66C U69C, with 0.15; and A5U G10C A45U U51C A56G A64G G70U, with 0.13; and A5U A57G A65G, with 0.43.
As for A5U C59U A64U, the self-cleavage was found to be 0.15.
Then A5U A47U U60A, with 0.18; and A5U U25C U49A U74C, with 0.46; and A5U U26C A45G A47U, with 0.23.
The result for A5U U26C A28U G42A U51C A56G reads 0.18; that for A5U A45G U74C, 1.08.
Take A5U G10A A15G U41A U54A U76C U78G: the self-cleavage is 0.05.
The result for A5U C29U A35U A47U U54G reads 0.07; that for A5U G7U U31C A35U U41C U60C, 0.06; that for A5U A57G A64G, 1.02.
Regarding A5U C44A A64G, the self-cleavage turned out to be 0.41.
Then A5U G10A A15G C27A C38A A47G, with 0.05.
The result for A5U U26A U51A U60C reads 0.41.
Then A5U C12A U49C, with 0.49; and A5U C29A C32U, with 0.28.
In the case of A5U C11G U67C, the self-cleavage came out at 0.2.
Then A5U C32U U58C U66C, with 0.16; and A5U C27U A47U A57G, with 0.11; and A5U G9U A35U C38U U48C, with 0.07.
The result for A5U A35U U54C A56G reads 0.45.
As to A5U G22U U48A, the self-cleavage was determined as 0.48.
A5U C12U A15G A45U: the self-cleavage is 0.29.
Turning to A5U G19A U60C U72G, the self-cleavage is 0.06.
Then A5U G10A A77G, with 0.1; and A5U U25A C29A C37A U69C, with 0.18; and A5U C40A U41C U51C, with 0.18.
The result for A5U G10A U49C reads 0.22; that for A5U U26A A35G A47G U48A U58C U69C, 0.91; that for A5U G63U U80C, 1.15.
Then A5U G10U A56G A65G, with 0.13.
For A5U U25C U54G U67C U80G, the self-cleavage turned out to be 0.47.
For A5U A47U U48C U72C U74C, the self-cleavage was determined as 0.17.
In the case of A5U G8C U54C U72C U76C, the self-cleavage came to 0.32.
Then A5U G7C A65G U72A, with 0.3.
Then A5U A64U U69C, with 0.25; and A5U G10A A15G U54A U80A, with 0.24; and A5U A35U C59U, with 0.34.
Then A5U G9A A35G A45C U48C A56G U78C, with 0.06; and A5U G9A C27A G42A, with 0.08; and A5U U25A U41A G70A, with 0.23.
Take A5U G8A A18G A35U G42C U49A U66C: the self-cleavage was found to be 0.04.
Take A5U A28U U69A U72C: the self-cleavage was 0.58.
For A5U U26A U41G A56G, the self-cleavage stood at 0.21.
Regarding A5U C12U U41C U66C, the self-cleavage worked out at 0.74.
For the variant A5U U25C U78C, the self-cleavage amounted to 0.24.
A5U U25A A35G C40U A56G U67C: the self-cleavage turned out to be 0.09.
The result for A5U C12U G30A A47G A77U reads 0.12; that for A5U G10A A18G A45U, 0.06.
Then A5U G9U A57G U66C U80C, with 0.23; and A5U G9A A21G A35G U43A U69A, with 0.34.
Consider A5U A45U U49C U51C A64G, for which the self-cleavage turned out to be 0.09.
The result for A5U U25A U43C U54C U72C U76C C79G reads 0.07; that for A5U U25C U41C, 0.17; that for A5U G8A G10C A47G U49C A65U U69C, 0.07.
Then A5U C11U A28U U31C U67C U80C, with 0.08; and A5U G24A U26C A28G U60A U80A, with 0.21.
Consider A5U A28U U54C U74C A75G, for which the self-cleavage turned out to be 1.23.
The result for A5U G6A A15G U43A U69A U80A reads 0.27; that for A5U C27G A75G, 0.29; that for A5U U25C A56U A64U, 0.16.
Then A5U C17A U54C U76C U80C, with 0.19; and A5U G9U U66C U72C, with 0.09; and A5U G36U U72C A77U, with 0.22.
As to A5U C40A A47G U60C, the self-cleavage came out at 0.19.
For the variant A5U C12G A13G U26C A45C, the self-cleavage is 0.12.
Then A5U U26C U54C A64U U72C U80A, with 0.21; and A5U C44U U60A U69C U74C, with 0.12; and A5U A45G U49C A65G U69C, with 0.41.
On to A5U A45U U48C U66A U67C, for which the self-cleavage is 0.12.
Then A5U G10A U48C U54A U60A, with 0.19; and A5U U25A C40U U66A, with 0.66.
Turning to A5U G8A U43A A45G C71G U78C U80A, the self-cleavage came to 0.03.
The result for A5U C27A A47U U49C reads 0.08.
Then A5U C40U U43C U51C A56G A64U C79A, with 0.12; and A5U C40U A64G, with 0.52; and A5U A28U G33C U43C U54C, with 0.25.
On to A5U U25C U41A U60A, for which the self-cleavage is 0.23.
The result for A5U U26C C32A U41C A45G U54A U72C reads 0.08.
Then A5U C14U A28G A64G, with 0.92.
Then A5U U26A U41C A56G, with 0.33.
Turning to A5U C11U A64G, the self-cleavage stood at 0.28.
With A5U C23U A35U U54A A56G U67C U72C, the self-cleavage turned out to be 0.1.
For the variant A5U U25C C27U G63U, the self-cleavage is 0.29.
Then A5U G10C A13C A28G U69A, with 0.4; and A5U A45G U58C A65G, with 0.1.
Then A5U G19C G24C G30U C34U A35U A64G, with 0.05; and A5U G6A U51C A57G, with 0.27; and A5U U25C U74C, with 0.3.
Then A5U U26A U41A U54A U67C A77G, with 0.12; and A5U C12U U51C, with 1.18.
Consider A5U C11G A20G A28C U78C, for which the self-cleavage is 0.72.
Then A5U A35U U43C, with 0.37; and A5U U25A A45U A64U, with 0.15; and A5U G42U U58A, with 0.1.
For A5U U26C U69A, the self-cleavage turned out to be 0.3.
As for A5U C27U A28G C32U U60C, the self-cleavage was found to be 0.17.
In the case of A5U U25C C40U A56C A57U, the self-cleavage turned out to be 0.38.
The result for A5U U25C U69C reads 0.31; that for A5U A35G A64G U80C, 1.25.
For A5U A35U U54C U60C, the self-cleavage was 0.14.
On to A5U A47G U51G U66C C81U, for which the self-cleavage was 0.
As for A5U C17U A20U A45U, the self-cleavage came out at 0.32.
Take A5U G6U U69G: the self-cleavage was 0.35.
For the variant A5U G6A U72A, the self-cleavage was 0.16.
For A5U U25C U41C U69C U72A U74A, the self-cleavage was determined as 0.08.
The result for A5U A56G A65U reads 0.15.
Take A5U C14U A20G A64G: the self-cleavage was 1.06.
Turning to A5U U26C U31C U78A, the self-cleavage came out at 0.62.
Then A5U G16A U31C U49C U78C U80C, with 0.07; and A5U G8A A47G U69A U72C U80C, with 0.31; and A5U C37A G73A, with 0.63.
As for A5U G8U U43C A45G A47G U69C, the self-cleavage was determined as 0.05.
For A5U C17U U41C G46U C71A, the self-cleavage turned out to be 0.06.
Regarding A5U C17U U74A U76C, the self-cleavage came to 1.21.
The result for A5U C17G U43C A64U reads 0.13; that for A5U G7C A15G A18G U26C A35G, 0; that for A5U A35U A64U U80A, 0.28.
Take A5U C17U G42A C50U: the self-cleavage came out at 0.04.
Consider A5U C12U G22U A75G, for which the self-cleavage amounted to 0.33.
Then A5U G61U A64U, with 0.16; and A5U G6A U74C, with 0.78; and A5U A35G G53A, with 1.26.
Then A5U U25C U51C, with 0.35.
In the case of A5U C11U A28U U43C U51A U69A, the self-cleavage was 0.07.
The result for A5U G9U A28G reads 0.27.
The result for A5U G8A G9A U25A U31C A65U U67G reads 0.11; that for A5U C38A C44U, 0.26.
The result for A5U G10A U43C U51C A57G A75G U80C reads 0; that for A5U C11G A56G, 0.66.
